Assay results from article PMC4336329 (PLoS ONE, 2015).
About 2,200 (0.71%) of roughly 310,000 compounds showed an effect of 50% or more. Effects have a minus sign here. Some of the results follow.

These compounds were tested against human ether-à-go-go-related gene (hERG) potassium channel (human, UniProt Q12809) (assay: primary screen, population patch clamp on CHO cells stably expressing hERG).
Sequence of human ether-à-go-go-related gene (hERG) potassium channel (Q12809 whole entry, looked up): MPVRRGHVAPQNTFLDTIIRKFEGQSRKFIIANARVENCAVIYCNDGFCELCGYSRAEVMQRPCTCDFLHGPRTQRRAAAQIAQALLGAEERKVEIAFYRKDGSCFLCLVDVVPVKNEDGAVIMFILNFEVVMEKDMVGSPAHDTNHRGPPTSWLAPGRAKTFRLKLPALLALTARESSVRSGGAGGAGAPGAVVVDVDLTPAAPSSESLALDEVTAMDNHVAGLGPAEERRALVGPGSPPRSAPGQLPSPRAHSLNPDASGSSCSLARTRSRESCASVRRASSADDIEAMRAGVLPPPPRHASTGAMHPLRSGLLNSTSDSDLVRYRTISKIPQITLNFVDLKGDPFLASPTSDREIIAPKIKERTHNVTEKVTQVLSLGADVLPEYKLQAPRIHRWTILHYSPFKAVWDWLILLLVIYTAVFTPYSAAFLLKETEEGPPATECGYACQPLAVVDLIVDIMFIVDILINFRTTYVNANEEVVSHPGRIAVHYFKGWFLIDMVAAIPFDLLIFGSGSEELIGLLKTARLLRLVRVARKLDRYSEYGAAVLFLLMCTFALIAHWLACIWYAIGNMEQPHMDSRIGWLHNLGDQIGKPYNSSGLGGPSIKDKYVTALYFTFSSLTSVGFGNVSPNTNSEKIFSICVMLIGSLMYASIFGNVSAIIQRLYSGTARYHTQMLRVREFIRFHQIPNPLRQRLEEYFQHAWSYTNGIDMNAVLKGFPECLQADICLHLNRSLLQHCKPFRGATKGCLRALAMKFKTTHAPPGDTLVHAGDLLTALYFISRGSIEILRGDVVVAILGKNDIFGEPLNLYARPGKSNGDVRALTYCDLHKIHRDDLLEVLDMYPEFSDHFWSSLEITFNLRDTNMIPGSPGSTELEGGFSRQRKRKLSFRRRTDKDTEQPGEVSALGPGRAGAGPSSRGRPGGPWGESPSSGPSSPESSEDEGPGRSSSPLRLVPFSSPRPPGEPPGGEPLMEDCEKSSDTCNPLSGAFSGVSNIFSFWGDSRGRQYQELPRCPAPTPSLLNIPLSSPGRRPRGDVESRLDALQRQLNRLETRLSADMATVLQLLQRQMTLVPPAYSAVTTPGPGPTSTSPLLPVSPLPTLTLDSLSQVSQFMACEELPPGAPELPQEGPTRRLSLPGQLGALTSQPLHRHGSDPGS

Row | SMILES | hERG current change (%, negative = inhibition) at 1uM [%]
1 | COc1cc(/C=C2\CCC(C3CCCC3)C2=O)ccc1OC(C)C (centres unmarked) | 10.1
2 | O=S(=O)(c1ccc(OCC(O)CN2CCc3ccccc3C2)cc1)N1CCOCC1 (centres unmarked) | 5.61
3 | Clc1ccc(-c2c[n+](Cc3ccc(Cl)cc3Cl)c3n2CCCCC3)cc1.[Br-] | -21
4 | CCCc1nc2c(s1)CCc1onc(-c3ccc(Cl)cc3)c1-2 | 12.5
5 | Cc1ccc(NC(=O)N2CCC(O)(c3cccnc3)CC2)cc1 | 9.55
6 | COc1ccccc1Nc1nc(N)nc(CSCCO)n1 | 11.2
7 | CCOC(=O)C(NCc1ccco1)(NC(=O)c1ccc(OC)cc1)C(F)(F)F (centres unmarked) | 5.91
8 | COc1ccc2cc(C(=O)C3CCCN(C4CCOCC4)C3)ccc2c1 (centres unmarked) | -23.7
9 | CN(C(=O)CN1CCCCCC1)c1c(N)n(Cc2ccccc2)c(=O)[nH]c1=O | 8.52
10 | COc1ccccc1C(=O)NCCNc1ccc([N+](=O)[O-])cc1Cl | 16.6
11 | CCc1ccc(Nc2nnc(SCC(=O)NC(=O)CN3CCCC3=O)s2)cc1 | 8.06
12 | CC(=O)Nc1ccccc1-c1nc2ccc(C(=O)N3CCN(c4ccccc4)CC3)cc2[nH]c1=O | 11.3
13 | N#C/C(=C(/O)COc1ccc(Cl)cc1)c1nc2ccccc2s1 | 16.8
14 | CC(C)OCCCNC(=O)c1c(N)n(/N=C/c2cccs2)c2nc3ccccc3nc12 | -3.4
15 | CCCCCCC1CCC(C(=O)N2CCOCC2)CC1 (centres unmarked) | 7
16 | Cc1ccc2nc(-c3ccc4c(c3)NC(=O)CO4)cn2c1 | 16.6
17 | c1ccc2c(c1)ccc1nnc(SCc3ccc4c(c3)OCCO4)n12 | 10.1
18 | Clc1ccc(-c2nnc(NCCN3CCCC3)c3ccccc23)cc1 | -55.1
19 | CCOCCOC(=O)COc1ccc2c(-c3ccccc3)cc(=O)oc2c1 | 6.86
20 | Cc1cc(NC(=O)Cn2cnc3c2c(=O)n(C)c(=O)n3C)n(-c2ccccc2)n1 | -2.51
21 | COc1cc(N)c(C(O)c2nccc3cc(OC)c(OC)cc23)cc1OC (centres unmarked) | 16.2
22 | CC1(C)CC(N2CN(C3CCCCC3)CC2=O)CC(C)(C)N1 | 8.03
23 | COc1ccccc1C(=O)Nc1ccccc1C(=O)N1C(C)CCCC1C (centres unmarked) | 12.7

Row | SMILES | hERG current change (%, negative = inhibition) at 1uM [%]
24 | COCCNC(=S)NNC(=O)c1cccs1 | 15.9
25 | O=C(CSc1nnc(-c2ccc(F)cc2)c2ccccc12)NCC1CCCO1 (centres unmarked) | -8.17
26 | N#Cc1c(NC(=O)CCC(=O)O)sc2c1CCCCC2 | 5.91
27 | Cc1c(Br)c(C(=O)NNC(=O)c2ccc(C(C)(C)C)cc2)nn1C | 12.3
28 | CCOC(=O)CSc1nnc(-c2ccc(OC)cc2)n1CC | 11.2
29 | NC(=O)c1nnn(-c2nonc2N)c1-c1ccc([N+](=O)[O-])cc1 | 7.76
30 | CN1CCN(c2ncnc3scc(-c4ccccc4Cl)c23)CC1 | -3.39
31 | CCOc1ccc2ccccc2c1CNCCc1ccc(S(N)(=O)=O)cc1.Cl | -30.1
32 | CC(C)NC(=O)Cn1nnc(-c2cccc(NC(=O)c3ccccc3F)c2)n1 | 5.77
33 | CN(C)NC1=CC(=[N+]2CCCC2)CC(C)(C)C1.[I-] | 14
34 | Cc1ccc(/C=N/N2CCN(c3ccncc3S(=O)(=O)N3CCCCC3)CC2)cc1 | 5.34
35 | COc1ccccc1N1CCN(C(=O)/C=C/c2ccc(C)cc2)CC1 | 7.96
36 | Cc1ccc(NC(=O)c2cc3ccccc3oc2=N)cc1 | 11.2
37 | COCCCNC(=O)c1ccc2c(c1)nc(C)n2-c1cccc(C)c1 | 14
38 | COc1cccc(/C=C/C(=O)NCCc2ccc3c(c2)OCCO3)c1 | 4.9
39 | CC1CN(C2CCN(C(=O)c3ccccc3)CC2)CC(C)O1 (centres unmarked) | 4.85
40 | Cc1ccc(N(C)S(=O)(=O)c2c(C)noc2/C=C/N(C)C)cc1 | 3.86
41 | CCCn1c(=N)c(S(=O)(=O)c2ccc(F)cc2)cc2c(=O)n3ccccc3nc21 | 6.66
42 | Cc1ccc(NC(=O)COC(=O)CNC(=O)c2ccc(C)s2)cc1 | 4.41
43 | NS(=O)(=O)c1cccc(NC(=O)CC23CC4CC(C2)CC(CC(=O)Nc2cccc(S(N)(=O)=O)c2)(C4)C3)c1 | 12.4
44 | CC(C)c1cc(-c2cc(C(=O)Nc3ccccc3)on2)nc(NCC2CC2)n1 | 15.6
45 | O=C(Oc1c(-c2ccccc2)c(=O)n2c3c(cccc13)CC2)c1ccccc1 | 7.02
46 | CC(C)(C)c1ccc(/C=C/C(=O)NC2CCS(=O)(=O)C2)cc1 (centres unmarked) | 5.15

Row | SMILES | hERG current change (%, negative = inhibition) at 1uM [%]
47 | COc1c(F)c(F)c(C(=O)Nc2ccc(N3CCN(Cc4ccccc4)CC3)cc2)c(F)c1F | 0.0603
48 | COc1cc(/C=N/NC(=O)c2ccc(N(C)S(=O)(=O)c3ccccc3)cc2)cc(OC)c1OC | 10.6
49 | Cc1nn(CCc2n[nH]c(=S)n2-c2ccc(F)cc2)c(C)c1[N+](=O)[O-] | 12.2
50 | O=C(CSCC(=O)Nc1ccccc1)N/N=C/c1c(O)ccc2ccccc12 | 4.6
51 | Cc1cc(C)c2cc(C#N)c(SCC(=O)Nc3cc(C)on3)nc2c1 | 10.2
52 | c1ccc(N2CCN(c3nc4ccccc4[nH]3)CC2)nc1 | -9.25
53 | COc1ccc(-c2cnc(SCC(=O)Nc3cc(C)on3)n2Cc2ccco2)cc1 | 5.24
54 | Cc1nn(-c2ccc(Cl)nn2)c(=O)c2ccccc12 | 7.5
55 | CC(C)C(C)NC(=O)COc1ncnc2ccccc12 (centres unmarked) | 16.1
56 | COc1c2c(cc3c1OCO3)CC[N+](C)=C2.[I-] | -3.98
57 | COCc1cc(C)nc(SCC(=O)Nc2ccc3c(c2)OCO3)c1C#N | 12.6
58 | CC(=O)Cc1nsc(NC(=O)c2ccc(-c3cccc(Cl)c3)o2)n1 | 9.63
59 | Cc1ccc(OC(C)C(=O)Nc2ccncc2)cc1C (centres unmarked) | 13
60 | COc1ccc(-c2nc(CN3CCN(Cc4ccccc4)CC3)c(C)o2)cc1 | 4.17
61 | CN(C[C@H](c1ccccc1)N(C[C@H](Cc1ccccc1)N(CCc1ccccc1)N=O)N=O)N=O.[Na+] | 13.8
62 | O=C(CSc1nc(O)c(Cc2ccccc2)c(=O)[nH]1)Nc1nc2c(s1)CCCC2 | 14.6
63 | Cn1c(=NC(=O)c2ccco2)sc2cccc(F)c21 | -2.48
64 | O=[N+]([O-])c1ccc(/C=N/Nc2nc3ccccc3o2)cc1 | 18.5
65 | COc1cccc(C(=O)Cn2c(=O)n(CCC(=O)NCC3CCCO3)c(=O)c3cc(OC)c(OC)cc32)c1 (centres unmarked) | 4.25
66 | Cc1cc(C)cc(NC(=O)c2cc(C)nc3ccccc23)c1 | 3.42
67 | CCc1ccc(-n2nc3ccc(NC(=O)c4ccc5c(c4)OCO5)cc3n2)cc1 | 9.63
68 | COc1ccc(-c2cc(-c3ccc(OC)cc3)nc(-c3ccc4c(c3)NC(=O)CO4)c2)cc1 | -6
69 | CC(C)N1CCN(Cc2cc(F)ccc2-n2cccn2)CC1CCO (centres unmarked) | 10.7

Row | SMILES | hERG current change (%, negative = inhibition) at 1uM [%]
70 | Cc1cc(C)n(S(=O)(=O)c2cc(Cl)ccc2Cl)n1 | 10.8
71 | COc1ccc(C2c3cc(OC)c(OC)cc3CCN2C2CC(=O)N(c3ccccc3)C2=O)cc1OC (centres unmarked) | -2.75
72 | c1ccc(Oc2cccc(OCCCCSc3ncccn3)c2)cc1 | 5.69
73 | CCCCOc1ccc(C2(C)NC(=O)N(C)C2=O)cc1 (centres unmarked) | 19.3
74 | CCOc1ccc(S(=O)(=O)N(CC(=O)O)c2ccccc2)cc1 | 9.78
75 | O=[N+]([O-])c1cccc(/C=N\N=C2c3ccccc3-c3ccccc32)c1O | -0.89
76 | CC1CCN(CCc2nc3cc(NC(=O)Nc4ccccc4)ccc3n2C)CC1 | 1.28
77 | CN(C)c1ccc(-c2nc3cc(N)ccc3o2)cc1 | 10.2
78 | Cc1oc2c(c1C(=O)Nc1cccc(C(=O)O)c1)CCCC2 | 10.8
79 | NS(=O)(=O)c1ccc(N/C=C\C(=O)c2ccncc2)cc1 | 13.7
80 | COc1ccc(-c2nc3ccccc3[nH]2)cc1 | 4.15
81 | CCN(CC)CCCNC(=O)c1cc(-c2ccc(O)cc2)on1 | -17.6
82 | Cc1cc(C)cc(NC(=O)CSCc2nc3c(nnn3Cc3ccc(F)cc3)c(=O)[nH]2)c1 | 8.15
83 | CSc1nnc(-c2ccccc2SC)o1 | 10.8
84 | CCOC(=O)C1CCN(C(=O)C2CCN(S(=O)(=O)N3CCC4(CC3)OCCO4)CC2)CC1 | 14.1
85 | CCC(=O)N1N=C(c2ccc(C)o2)CC1c1ccc(N(C)C)cc1 (centres unmarked) | 14.7
86 | CSc1nc2c(c(=O)n1-c1ccccc1)SCC2 | 8.99
87 | CC(O)c1cccc(NC(=O)Cc2cccc3ccccc23)c1 (centres unmarked) | 12.5
88 | Nc1nc(NC(=O)c2cccs2)nn1-c1ccccc1 | 13.2
89 | C#CCOCCOCCOCCNc1nc(N2CCN(C(=O)[C@H]([C@@H](C)CC)n3cc([C@@H](N)Cc4ccc(O)cc4)nn3)CC2)nc(N2CCN(C(=O)[C@H](Cc3cc4ccccc4[nH]3)n3cc([C@@H](N)CC(C)C)nn3)CC2)n1.Cl | 10
